The record followed here is ChEMBL document CHEMBL5308541, “MAIP: An Open-Source Tool to Enrich High-Throughput Screening Output and Identify Novel, Druglike Molecules with Antimalarial Activity” (ACS Med Chem Lett, 2023).

Hit rate of the full screen: of about 150,000 compounds, about 540 (0.36%) showed an effect of 50% or more. The list shows a part of the results.

The subject of the assay is Plasmodium falciparum. The assay is described as follows: Primary screen in NF54 nanoGlo assay, in single point, at 2uM, 72h; a lower Z score goes with more inhibition. Format: functional, Erythrocyte. Conditions: timepoint 72 hour.
As usually defined, the % Inhibition is the relative decrease from the control value, in per cent. Consider `CCN1CCC(CCNC2CCN(CC(F)F)CC2)CC1`, for which the “% Inhibition” value turned out to be 10% and the Z score is listed as -2.05.

In the case of `Cc1nc(N2CCOCC2)ccc1N[C@H]1CCN(CC(F)(F)F)C1`, the “% Inhibition” value is reported as -4% and the Z score came to 0.61.

As for `Cn1nccc1-c1ccnc(N[C@H]2CCN(C(=O)OC(C)(C)C)C2)n1`, the “% Inhibition” value is -11% and the Z score is given as 2.46.

For `CCCN(C(=O)CCc1nc(-c2ccco2)no1)C1CC(OCC)C12CCCCC2` (configuration not stated), the “% Inhibition” value is -17% and the Z score was 3.28.

`CCn1cc(-c2cc(C(=O)N(C)C[C@H]3CCCN3C)c3ccc(F)cc3n2)cn1`: the “% Inhibition” value is -8% and the Z score is 1.38.

Turning to `Cc1nc(N)nc(N2CCO[C@@H](Cc3noc(-c4ccccn4)n3)C2)c1C`, the “% Inhibition” value is recorded as 4% and the Z score was -0.85.

On to `N#Cc1ccc(CN2CC[C@@H]3CNC[C@@H]3CC2)c(C(F)(F)F)c1`, for which the “% Inhibition” value was determined as 3% and the Z score is given as -0.51.

On to `Cc1cc(CC2CN(C(=O)c3cc4ccccc4n3C)CC2O)on1` (configuration not stated), for which the “% Inhibition” value is reported as -7% and the Z score was determined as 1.61.

Consider `CC1(C)[C@@H]2CC[C@H](CNc3ncnc4c3CCNC4)[C@H]1C2`, for which the “% Inhibition” value stood at 11% and the Z score is listed as -1.74.

In the case of `O=S(=O)(Nc1cccc(C(F)(F)F)c1)c1ccc2[nH]c(-c3ccc4c(c3)OC(F)(F)O4)nc2c1`, the “% Inhibition” value turned out to be 0% and the Z score is given as 0.05.

As for `CCN1CCN([C@H]2CCN(c3nc(C(C)C)nc4[nH]ccc34)C2)CC1`, the “% Inhibition” value was -1% and the Z score was 0.16.

In the case of `Cc1noc(C)c1NC(=O)c1cccc(S(=O)(=O)N(C)Cc2cc[nH]n2)c1`, the “% Inhibition” value is 5% and the Z score is recorded as -1.1.

On to `CCN1CCN(C[C@H](O)COc2ccc(CNCCCN3CCCC3=O)cc2OC)CC1`, for which the “% Inhibition” value was -4% and the Z score came to 0.81.

Take `O=C1Cc2cccc(c2)Oc2cccc(c2)COC2CN(c3cncc(C(=O)N4CCCC4)n3)CC2N1` (configuration not stated): the “% Inhibition” value was determined as 7% and the Z score is -1.12.

As to `COc1ccc2[nH]c(CN3CCC[C@H](N4CCN(c5ccccc5)CC4)C3)c(C)c2c1`, the “% Inhibition” value is recorded as -4% and the Z score amounted to 0.66.

As to `CO[C@H]1C[C@@H](CNc2nccc(OC(C)C)n2)N(c2cc(C)ncn2)C1`, the “% Inhibition” value is given as -1% and the Z score was found to be 0.17.

`CCNC(=O)c1ccc(NC(=O)NCCCn2ccnn2)cc1`: the “% Inhibition” value was -5% and the Z score is recorded as 0.77.

In the case of `O=C1CN(CCCN[C@H]2CCN(c3ccccc3)C2)CCN1`, the “% Inhibition” value is reported as -2% and the Z score is reported as 0.37.

Regarding `Cc1nccn1Cc1ccc(NCc2cccc3cccnc23)cc1`, the “% Inhibition” value is -7% and the Z score came out at 1.55.

For the compound `COc1ccc(-c2ccc(C(=O)N3Cc4[nH]cnc4C[C@H]3C(=O)O)o2)cc1`, the “% Inhibition” value was -10% and the Z score amounted to 1.78.

Take `O=C(Nc1ccc(N2CCNCC2)cn1)c1cc2n(n1)CC1(CCNCC1)OC2`: the “% Inhibition” value is reported as -7% and the Z score amounted to 1.3.

Regarding `CC1CCC(C)N1CCN1CCN(CCOc2cccc(F)c2)CC1` (configuration not stated), the “% Inhibition” value is given as 4% and the Z score is given as -0.88.

For the compound `CCN1CC(Nc2nc(N)nc3c2CCNCC3)C(OC)C1` (configuration not stated), the “% Inhibition” value is reported as 6% and the Z score was -1.02.

With `O=C(c1cc2occc2[nH]1)N1CCN(C2CCCCC2)CC1`, the “% Inhibition” value is -11% and the Z score stood at 1.97.

Turning to `OC1CN(Cc2cnc(C3CCCCC3)nc2)CCC1Nc1ncccn1` (configuration not stated), the “% Inhibition” value is 49% and the Z score is on record as -7.39.

Regarding `CN(CCCN1CCCCCC1)C(=O)c1ccc(-c2cnc(N)cn2)cc1`, the “% Inhibition” value was determined as 4% and the Z score is recorded as -0.83.

On to `O=C(c1cccnc1Nc1cccc(F)c1)N1CC[C@H](Oc2ccc(C(F)(F)F)cn2)C1`, for which the “% Inhibition” value was -2% and the Z score worked out at 0.44.

As for `O=C(c1cccc(OCCc2ccccc2)c1)N1CC2COCCC2(C(=O)O)C1` (configuration not stated), the “% Inhibition” value is recorded as -3% and the Z score turned out to be 0.52.

`COc1cccc(S(=O)(=O)N2C3CCC2CC(n2cc(Br)cn2)C3)c1` (configuration not stated): the “% Inhibition” value is -8% and the Z score amounted to 1.17.

In the case of `c1cc([C@H](CNc2ncnc3c2CCNCC3)N2CCOCC2)ccn1`, the “% Inhibition” value is recorded as -3% and the Z score amounted to 0.59.

Turning to `CC(=O)Nc1cccc(Nc2ncncc2-c2nc(-c3ccccc3F)no2)c1`, the “% Inhibition” value is on record as -3% and the Z score was found to be 0.55.

Turning to `CC(C)(C)OC(=O)N1C2CCC1CC(Nc1cccc(N3CCCCC3)c1)C2` (configuration not stated), the “% Inhibition” value was -16% and the Z score is 2.72.

With `COc1ccc(NC(C)(C)C(=O)NCc2c(C)ccc3ncccc23)cc1`, the “% Inhibition” value came to 1% and the Z score is given as -0.14.

As for `CCc1cc(N2CCN(c3nccc(-c4cccnc4)n3)CC2)ncn1`, the “% Inhibition” value was -3% and the Z score was determined as 0.57.

For `CC1CC(c2ccc(F)cc2)CN1C(=O)c1ccc(C(=O)O)nc1` (configuration not stated), the “% Inhibition” value is on record as -4% and the Z score was found to be 0.76.

Regarding `O[C@H](COc1ccccc1CNCc1cc(-c2ccccc2)[nH]n1)CN1CCCCC1`, the “% Inhibition” value amounted to 32% and the Z score is -5.52.

As for `COCCN1CCC[C@H](CNc2nc(C)nc3ccccc23)C1`, the “% Inhibition” value turned out to be 3% and the Z score is -0.62.

`COc1ccc(-c2[nH]c3ccccc3c2CCC(=O)N[C@H]2CCCc3[nH]c(=O)c(C(N)=O)cc32)cc1`: the “% Inhibition” value is reported as -2% and the Z score is recorded as 0.3.

In the case of `O=C(Nc1cccc(N2CCC(NCC3(c4ccccc4)CCOCC3)CC2)c1)c1ccncc1`, the “% Inhibition” value worked out at 4% and the Z score was -0.72.

Regarding `Cc1[nH]c(-c2ccccc2)nc1C(=O)N1CCN(CCN2CCCC2)CC1`, the “% Inhibition” value is reported as -7% and the Z score is listed as 1.3.

`CC(C)NC(=O)C1CCN(C2CCN(Cc3cnc(N4CCCC4)s3)CC2)CC1`: the “% Inhibition” value was -9% and the Z score is reported as 1.51.
